Source: patent US6706740B2, “Fungicidal heterocyclic aromatic amides and their compositions, methods of use and preparation” (Dow AgroSciences LLC, priority 1999, dated 2004)

Experiments:
[1] = tested on: Puccinia recondita—PUCCRT; experiment: Brown Rust of Wheat, in vivo whole plant, 24 Hour Protectant
Septoria tritici—SEPTTR = experiment: Leaf Blotch of Wheat, in vivo whole plant, 24 Hour Protectant
[2] = tested on: Leptosphaeria nodorum—LEPTNO; experiment: Glume Blotch of Wheat, in vivo whole plant, 24 Hour Protectant

## CON=C(c1ccc(NC(=O)c2nccc(OC)c2OC(C)=O)cc1)c1cccc(C(F)(F)F)c1 [Compound 707]
[1]
  PUCCRT in vivo 1 Day Protectant: + (key: ++: at least 75-100% control of fungal infection; +: 25-74% control of fungal infection; −: <25% control of fungal infection)
Septoria tritici—SEPTTR
  SEPTTR in vivo 1 Day Protectant: + (key: ++: at least 75-100% control of fungal infection; +: 25-74% control of fungal infection; −: <25% control of fungal infection)
[2]
  LEPTNO in vivo 1 Day Protectant: − (key: ++: at least 75-100% control of fungal infection; +: 25-74% control of fungal infection; −: <25% control of fungal infection)

## COCCC(=O)Oc1c(OC)ccnc1C(=O)Nc1ccc(C(=NOC)c2cccc(C(F)(F)F)c2)cc1 [Compound 708]
[1]
  PUCCRT in vivo 1 Day Protectant: − (key: ++: at least 75-100% control of fungal infection; +: 25-74% control of fungal infection; −: <25% control of fungal infection)
Septoria tritici—SEPTTR
  SEPTTR in vivo 1 Day Protectant: + (key: ++: at least 75-100% control of fungal infection; +: 25-74% control of fungal infection; −: <25% control of fungal infection)
[2]
  LEPTNO in vivo 1 Day Protectant: + (key: ++: at least 75-100% control of fungal infection; +: 25-74% control of fungal infection; −: <25% control of fungal infection)
